Measured values reported in the supplement of paper PMC13380429.

Assays:
[1] = system: A549-ACE2 infected with SARS-CoV-2; assay: SARS-CoV-2 infection rate relative to DMSO; higher = more infection; settings: 24 h
[2] = system: A549-ACE2; assay: drug-induced phospholipidosis relative to tamoxifen; higher = more phospholipidosis
[3] = system: U2OS; assay: drug sensitivity score (DSS) for viability; higher = more toxic; extreme values may be limits of the assay; settings: 72 h
[4] = system: Calu-3; assay: as above; settings: 72 h
[5] = system: HepG2; assay: as above; settings: 72 h
[6] = system: Vero E6; assay: as above; settings: 72 h
[7] = system: Caco-2; assay: as above; settings: 72 h
[8] = system: A549-ACE2; assay: phospholipidosis EC50; higher = less potent phospholipidosis inducer; settings: 24 h
[9] = system: A549-ACE2 infected with SARS-CoV-2; assay: cell count relative to DMSO; higher = less toxic; settings: 24 h
[10] = system: A549-ACE2 infected with SARS-CoV-2; assay: morphology score (similarity to uninfected cells); higher = more like uninfected cells; settings: 24 h
[11] = system: U2OS; assay: relative viability EC50 (midpoint between 100% and the lowest measured viability); higher = less toxic; settings: 72 h
[12] = system: HepG2; assay: as above; settings: 72 h
[13] = system: Vero E6; assay: as above; settings: 72 h
[14] = system: Caco-2; assay: as above; settings: 72 h
[15] = system: U2OS; assay: cell viability relative to DMSO; higher = less toxic; settings: 72 h
[16] = system: Calu-3; assay: as above; settings: 72 h
[17] = system: HepG2; assay: as above; settings: 72 h
[18] = system: Vero E6; assay: as above; settings: 72 h
[19] = system: Caco-2; assay: as above; settings: 72 h

O=C1NC(=O)c2c1c(-c1ccccc1)cc1[nH]c3ccc(O)cc3c21
SARS-CoV-2 infection rate ([1]; 0.1 µM): 95%
SARS-CoV-2 infection rate ([1]; 0.3 µM): 96%
SARS-CoV-2 infection rate ([1]; 1 µM): 92%
SARS-CoV-2 infection rate ([1]; 3 µM): 88%
drug-induced phospholipidosis ([2]; 0.3 µM, 24 h): -1.81%
drug-induced phospholipidosis ([2]; 0.3 µM, 48 h): 0.48%
drug-induced phospholipidosis ([2]; 0.3 µM, 72 h): 1.16%
drug-induced phospholipidosis ([2]; 0.833333 µM, 24 h): 0.56%
drug-induced phospholipidosis ([2]; 0.833333 µM, 48 h): -0.71%
drug-induced phospholipidosis ([2]; 0.833333 µM, 72 h): -0.0827%
drug-induced phospholipidosis ([2]; 3.33333 µM, 24 h): 20.2%
drug-induced phospholipidosis ([2]; 3.33333 µM, 48 h): 11.9%
drug-induced phospholipidosis ([2]; 3.33333 µM, 72 h): 5.04%
drug-induced phospholipidosis ([2]; 6.66667 µM, 24 h): 60.1%
drug-induced phospholipidosis ([2]; 6.66667 µM, 48 h): 43%
drug-induced phospholipidosis ([2]; 6.66667 µM, 72 h): 35.6%
drug-induced phospholipidosis ([2]; 10 µM, 24 h): 125%
drug-induced phospholipidosis ([2]; 30 µM, 24 h): 196%
drug sensitivity score [3]: 8.3
drug sensitivity score [4]: 1.3
drug sensitivity score [5]: 7.2
drug sensitivity score [6]: 4.1
drug sensitivity score [7]: 5.7
phospholipidosis EC50 [8]: 8.77 µM
cell count ([9]; 0.1 µM): 109%
cell count ([9]; 0.3 µM): 110%
cell count ([9]; 1 µM): 99%
cell count ([9]; 3 µM): 92%
morphology score ([10]; 0.1 µM): 0.39
morphology score ([10]; 0.3 µM): 0.41
morphology score ([10]; 1 µM): 0.36
morphology score ([10]; 3 µM): 0.29
relative viability EC50 [11]: 1.77 µM
relative viability EC50 [12]: 1.45 µM
relative viability EC50 [13]: 2.24 µM
relative viability EC50 [14]: 1.91 µM
cell viability ([15]; 1 nM): 109%
cell viability ([15]; 10 nM): 100%
cell viability ([15]; 100 nM): 102%
cell viability ([15]; 1000 nM): 81.6%
cell viability ([15]; 10000 nM): 4.7%
cell viability ([16]; 1 nM): 111%
cell viability ([16]; 10 nM): 103%
cell viability ([16]; 100 nM): 109%
cell viability ([16]; 1000 nM): 108%
cell viability ([16]; 10000 nM): 63.8%
cell viability ([17]; 1 nM): 104%
cell viability ([17]; 10 nM): 110%
cell viability ([17]; 100 nM): 93.5%
cell viability ([17]; 1000 nM): 76.5%
cell viability ([17]; 10000 nM): 24.9%
cell viability ([18]; 1 nM): 108%
cell viability ([18]; 10 nM): 103%
cell viability ([18]; 100 nM): 102%
cell viability ([18]; 1000 nM): 93.6%
cell viability ([18]; 10000 nM): 43.2%
cell viability ([19]; 1 nM): 98.2%
cell viability ([19]; 10 nM): 104%
cell viability ([19]; 100 nM): 104%
cell viability ([19]; 1000 nM): 88.6%
cell viability ([19]; 10000 nM): 30.7%
